Measurements taken from ChEMBL document CHEMBL1201862, “PubChem BioAssay data set” (2004).

The molecules below were run on NCI-H322M (assay: DTP human tumour cell line panel, 48 h).
`C=C(Br)CN(C(C)=O)C1CCCCC1` was tested, and the GI50 was inactive: > 100 µM. `COc1cccc2c1C(=O)C=CC2=O` was tested, and the GI50 was inactive: 15.7 µM. With `Cc1c(C#N)c(=O)[nH]c(=O)n1CCN1CCN(C(=O)NCCCCCCNC(=O)N2CCN(CCn3c(C)c(C#N)c(=O)[nH]c3=O)CC2)CC1` the GI50 was inactive: > 100 µM. With `S=C1CNC(=S)CN1` the GI50 was inactive: > 100 µM. In the case of `CC(C)(CCl)NC(=O)c1cccc(C(=O)NC(C)(C)CCl)n1`, the GI50 is reported as inactive: > 100 µM. With `NC(=O)c1ncn(Cc2ccccc2)c1CNC(N)=S` the GI50 was inactive: > 100 µM. For `COC1C(CO)OC(n2c3c(Cl)cccc3c3c4c(c5c6cccc(Cl)c6[nH]c5c32)C(=O)NC4=O)C(O)C1O` (stereo not drawn), the GI50 was active: 0.28 µM. With `CC(C)CC(N)C(=O)Nc1ccc2ccccc2c1` (stereo not drawn) the GI50 was inactive: > 100 µM. With `O=c1oc2ccc3ccccc3c2cc1-c1nc2ccccc2s1` the GI50 was inactive: > 100 µM. With `O=C(NNC(=O)c1ccccc1O)c1ccco1` the GI50 was inactive: > 100 µM. In the case of `COC(=O)NCCc1n[nH]c2c1C(=O)C=C(OC)C2=O`, the GI50 is reported as inactive: 51.4 µM. With `COC(c1ccc(C(C)(C)C)cc1)(c1ccc(C(C)(C)C)cc1)c1ccc(C(C)(C)C)cc1` the GI50 was inactive: > 100 µM. With `Cc1nc2ccccc2n1CCc1nc2ccccc2[nH]1` the GI50 was inactive: > 100 µM. `Cc1ccccc1NC(=O)C(=O)CC(=O)c1sc(-n2nc(-c3ccccc3)cc2-c2ccccc2)nc1C` was tested, and the GI50 was inactive: > 100 µM. `COc1cc([C@@H]2c3cc4c(cc3[C@@H](OC3OC5COC(C)OC5C(O)C3O)[C@H]3COC(=O)[C@H]23)OCO4)cc(OC)c1O` (stereo partly drawn) was tested, and the GI50 was inactive: 86.5 µM. In the case of `O=C(Nc1nc2ncn(CCO)c2c(=O)[nH]1)c1ccccc1`, the GI50 is reported as inactive: > 100 µM. With `O=C(O)/C=C/C(=O)N1C/C(=C\c2ccccc2)C(=O)/C(=C/c2ccccc2)C1` the GI50 was inactive: 14.2 µM. For `CCSC1=N/C(=C\c2ccc(N(C)C)cc2)C(Cl)=N1`, the GI50 was inactive: > 100 µM. With `COC(=O)Nc1nc2ccccc2[nH]1` [CARBENDAZIM] the GI50 was inactive: 29.7 µM. With `CC(=O)OCCOCn1c2c(c(=S)[nH]c1=O)CCC2` the GI50 was inactive: > 100 µM. `Cn1c2ccccc2c(=O)c2c(O)cc3c(c21)CC(C1(C)CO1)O3` (stereo not drawn) was tested, and the GI50 was inactive: 11.5 µM. `Cc1ccc2[nH]c(=O)c(C(C#N)c3ccccc3)nc2c1` (stereo not drawn) was tested, and the GI50 was inactive: 62.1 µM. In the case of `CCC(=O)Nc1ccc(/N=C/c2cccc(Oc3ccccc3)c2)cc1`, the GI50 is reported as inactive: > 100 µM. `CC(N)C(=O)c1ccc(O)cc1` (stereo not drawn) was tested, and the GI50 was inactive: > 100 µM. `Cc1ccc(CC(=O)Nc2ccc(NC(=O)/C=C/NC(=O)/C=C/c3ccc(-c4ccccc4)cc3)cc2C(=O)c2ccccc2)cc1` was tested, and the GI50 was inactive: 3.47 µM. `O=C1C(O)=C(Cc2ccccc2)C(=O)c2ccccc21` was tested, and the GI50 was inactive: 43.8 µM. For `Cc1ccc2c(c1)-c1nc(N)c(C#N)c(-c3ccccc3)c1CCS2(=O)=O`, the GI50 was inactive: 23.9 µM. With `COC(=O)C(=O)C(C(=O)C(=O)Nc1ccccc1C(C)=O)c1nc2ccc(C(=O)c3ccccc3)cc2nc1O` (stereo not drawn) the GI50 was inactive: > 100 µM. In the case of `O=c1[nH]cnc2c1ncn2[C@@H]1C[C@@H]1CO`, the GI50 is reported as inactive: > 100 µM. `NS(=O)(=O)c1cc2c(cc1Cl)NC(/C(=N/NC(=O)c1ccncc1)C1C(=O)NC(=O)NC1=O)=NS2(=O)=O` was tested, and the GI50 was inactive: > 100 µM. For `COc1ccc(C(=O)C(C(=O)CCC(=O)Nc2cccc(Cl)c2)c2ccc(OC)cc2)cc1` (stereo not drawn), the GI50 was inactive: > 100 µM. With `N#CC1C(=O)C(=O)N(c2ccccc2)C1=O` (stereo not drawn) the GI50 was inactive: > 100 µM. With `COc1ccc2nc3cc(Cl)ccc3c(NCCCN(CCCl)CCCl)c2c1` the GI50 was active: 0.0568 µM. For `Cc1nc(-c2ccc(Cl)cc2)cn2c1nc1ccccc12`, the GI50 was inactive: > 100 µM. With `COc1cc2c3c(c4ccc(O)cc4c2cc1OC)[C@@H](O)[C@@H]1CCCN1C3` the GI50 was active: < 0.001 µM. With `COc1cc(/C=C/C(=O)CC(=O)/C=C/c2cc(C)c(O)c(OC)c2)cc(C)c1O` the GI50 was inactive: > 100 µM. For `COc1ccc2c(ccc3c(COC(=O)NC(C)C)c(COC(=O)NC(C)C)n(C)c32)c1`, the GI50 was inactive: 20.4 µM. For `CCCCCC/C(CC(=O)CCC(=O)NCCc1ccccc1)=N\Nc1ccc([N+](=O)[O-])cc1[N+](=O)[O-]`, the GI50 was inactive: > 100 µM. `COc1cc(C=O)cc(/C=N/N=C/c2ccccc2O)c1O` was tested, and the GI50 was inactive: 30.2 µM. `O=c1[nH]cnc2c1ncn2C1SC(CO)C(O)C1O` (stereo not drawn) was tested, and the GI50 was inactive: > 100 µM. `COc1cc(/C=C/C(=O)OCC23CC[C@@]4(C(=O)O)CCC(C)[C@H](C)C4C2=CCC2[C@@]4(C)CC[C@H](O)C(C)(C)C4CC[C@]23C)ccc1O` (stereo partly drawn) was tested, and the GI50 was inactive: 19.4 µM. For `O=c1c2c3c(sc2nc2n1N=CN(c1ccc(F)cc1)C2)CCCC3`, the GI50 was inactive: > 100 µM. `S=c1oc(CCCCCCCCc2nn(CNc3ccccc3)c(=S)o2)nn1CNc1ccccc1` was tested, and the GI50 was inactive: > 100 µM. With `c1cncc(CNCCN2CCNCC2)c1` the GI50 was inactive: > 100 µM. `CC(=O)Nc1ccc2nc(-c3cccc(F)c3)cc(O)c2c1` was tested, and the GI50 was inactive: 12.2 µM. `Cc1cc(C(=O)CBr)c(CN2C(=O)c3ccccc3C2=O)c(=O)n1C` was tested, and the GI50 was inactive: 31.9 µM. `COC(OC)c1cccnc1C` was tested, and the GI50 was inactive: > 100 µM. With `CC(=O)O[C@@]1(C)[C@@H](C)C(=O)O[C@@H]2CCN3CC=C(COC(=O)[C@]1(C)O)[C@H]23` the GI50 was inactive: > 100 µM. `COc1cccc(N2CCc3c(C)c(C#N)c4nc5ccccc5n4c32)c1` was tested, and the GI50 was inactive: > 100 µM. In the case of `C=C(c1ccccc1)c1cc2c(=O)[nH]ccc2n1C`, the GI50 is reported as inactive: 62.4 µM. For `COc1ccccc1C1ON=C(c2ccc([N+](=O)[O-])cc2)N1C12CC3CC(CC(C3)C1)C2` (stereo not drawn), the GI50 was inactive: > 100 µM. For `O=C(c1ccccc1)N1C(=S)N(c2ccc([N+](=O)[O-])cc2)C(=N/c2ccccc2)/C1=N\c1ccccc1`, the GI50 was inactive: > 100 µM. In the case of `CC1=NN(c2ccccc2)C(=O)/C1=C/c1ccc(O)cc1`, the GI50 is reported as inactive: > 100 µM. `Cc1cc(S(=O)(=O)Nc2nc(N)n[nH]2)c(SCC(=O)O)cc1Cl` was tested, and the GI50 was inactive: > 10 µM. For `O=c1cccccc1NCCCCCCNc1cccccc1=O`, the GI50 was inactive: > 100 µM. In the case of `CSc1ccc2c(cc1=O)C(NC(=O)c1ccc(C#N)cc1)CCc1cc(O)c(O)c(O)c1-2` (stereo not drawn), the GI50 is reported as inactive: 41.1 µM. In the case of `Cc1ccc(S(=O)(=O)NC2(C=O)CCC(C(C)(C)C)CC2)cc1` (stereo not drawn), the GI50 is reported as inactive: 54.3 µM. With `O=c1cccc(Cl)[nH]1` the GI50 was inactive: > 100 µM. With `O=S(=O)(c1ccccc1)n1cnc(CCc2ccccc2)n1` the GI50 was inactive: > 100 µM. For `N=C(N)SCc1ccc(N=C=S)cc1`, the GI50 was inactive: 16.1 µM. With `COCN1C(N)=C(C(=O)OC(C)(C)C)C2=CC(=O)C=CC21C` (stereo not drawn) the GI50 was inactive: 15 µM. With `O=C1Nc2ccccc2/C1=N/NC(=S)NCc1ccccn1` the GI50 was inactive: 1.3 µM. In the case of `O=c1sc2c(s1)-c1sc(=O)sc1SS2`, the GI50 is reported as inactive: > 100 µM. `O=C1CCC23CC(C=CC=C12)n1c(=O)n(-c2ccccc2)c(=O)n13` (stereo not drawn) was tested, and the GI50 was inactive: > 100 µM. For `Cc1ccc(-c2c3c(n(C4OC(CO)C(O)C(O)C4O)c(=S)c2C#N)CC(C)(C)CC3=O)cc1` (stereo not drawn), the GI50 was inactive: > 100 µM. For `COc1ccc([N+](=O)[O-])c2c(NCCCN(C)C)c3ccccc3nc12`, the GI50 was active: 0.437 µM. In the case of `CC1C/C(=C\c2ccc(OC(=O)C(C)(C)C)cc2)C(=O)/C(=C/c2ccc(OC(=O)C(C)(C)C)cc2)C1` (stereo not drawn), the GI50 is reported as inactive: > 100 µM. In the case of `Cc1nc2ccccc2c(=O)n1NC(=O)c1ccc(N)cc1`, the GI50 is reported as inactive: > 100 µM.

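Tested at 5 concentrations; 48 h exposure; 96-well plates; endpoints linearly interpolated, else capped at highest concentration. Abbreviation: GI50, concentration required for 50% inhibition of growth.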 Active and inactive are the calls of the source. Rule as the data show it: active = GI50 up to about 1.1 µM and inactive = higher.
